Several values for one entry are separate records, joined by “and”; a condition that tells them apart may be missing. Equal values may be shown once. About 50,000 (12%) of roughly 420,000 compounds were called active. Inconclusive results, whose numbers are uncertain, are shown with a selection of clear calls. Calls come from the whole dose curve; as a rule, active = well fitted inhibition curve with a large enough effect; inconclusive = small, poorly fitted or top-dose-only effect; inactive = flat fitted curve, though single readings scatter. Potencies of inconclusive entries are left out as doubtful fits.
Assay: qHTS for Inhibitors of human tyrosyl-DNA phosphodiesterase 1 (TDP1): qHTS in cells in presence of CPT; note: nearly all actives have a fitted effect of over 55% in size
Conditions: chicken DT40 Tdp1-/-;hTDP1 cells + 20 nM CPT, ATP luminescence, 48 h; activity change, negative = growth inhibition: at 46.2 µM (top of the series) unless noted
Outline: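 Cell growth measured by CellTiter-Glo luminescence after a minimum 48 h, 37 C compound exposure with 20 nM CPT in Tdp1-knockout DT40 cells stably expressing hTDP1, seeded 400/well; qHTS titration format.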
% is set by controls: 0 for no effect and ±100 for the full control effect; potency is the fitted concentration of half-maximal effect; tags give direction and shape of the fitted curve.

SMILES | Potency | activity change, negative = growth inhibition
CCOc1ccc(NC(=O)c2cccc(S(=O)(=O)Nc3c(C)n(C)n(-c4ccccc4)c3=O)c2)cc1 | inconclusive [inhibitor, single point] | –
COc1ccc(-c2cn(-c3ccc(Cl)cc3)c3[n+]2CCCCC3)cc1 | active: 2.31 µM | –
COc1ccccc1Cc1c(-c2ccc(Cl)cc2)nc2ccc(Br)cn12 | active: 20.6 µM | –
Fc1ccc(-n2ncc3c(NCCCn4ccnc4)ncnc32)cc1 | inconclusive [inhibitor, partial curve] | –
Cn1c(=O)c2[nH]c(NN=Cc3ccccc3)nc2n(C)c1=O | inconclusive [inhibitor, single point] | –
CC1CN(S(=O)(=O)c2ccc(C(=O)Nc3nnc(-c4ccc5c(c4)CCCC5)o3)cc2)CC(C)O1 (stereo not drawn) | active: 6.51 µM | –
COc1cccc(Nc2ncc3nc(CCc4ccccc4)c(=O)n(C4CC4)c3n2)c1 | inactive | –
Cc1ccc(C)c(NC(=O)Cn2nnc(C(=O)NCc3ccccc3Cl)c2N)c1 | – | inconclusive: -30.2% [inhibitor]
COc1ccc(C(=O)N(Cc2cc(OC)c(OC)c(OC)c2)c2ccccn2)cc1 | inconclusive [inhibitor, single point] | –
CN1CCc2c(sc3c2c(=O)n(-c2cccc(Cl)c2)c2nncn32)C1 | inconclusive [inhibitor, partial curve] | –
CC(C)[C@H](NS(=O)(=O)c1ccccc1)C(=O)OCC(=O)NC(=O)NC1CCCCC1 | inconclusive [inhibitor, partial curve] | –
CCC(C(=O)OCC(=O)C1(O)CCC2C3CCC4=CC(=O)CCC4(C)C3C(O)CC21C)C(C)C (stereo not drawn) | active: 9.2 µM | –
CCN(CC)C(=O)C1CCCN(c2ncnc3c2cnn3-c2cccc(C)c2)C1 (stereo not drawn) | inconclusive [inhibitor, single point] | –
Cc1cccc(CC(C)NC(=O)c2oc3c(F)cccc3c2C)n1 (stereo not drawn) | inconclusive [inhibitor, single point] | –
O=C(CN1C(=O)S/C(=C\c2ccc(Cl)cc2)C1=O)NCCCn1ccnc1 | inconclusive [inhibitor, single point] | –
Brc1ccc(-c2csc(/N=C/N3CCOCC3)n2)cc1 | inconclusive [inhibitor, full curve, poor fit] | –
COc1ccc(NC(=O)Cc2ccc(Cl)cc2)cc1NC(=O)c1ccco1 | inactive | –
O=C(COC(=O)/C=C/c1ccc(OC(F)F)cc1)NC1CCCCCCC1 | inactive | –
CCOc1cc(/C=N/NC(=O)CN2CCOCC2)ccc1OCc1ccccc1 | inactive | –
CCc1ccc(CN2CCC(Oc3ccc(C(=O)N4CCCC4)cc3)CC2)cc1 | active: 18.4 µM | –
CCOC(=O)NC(=O)c1cn(Nc2ncc(C(F)(F)F)cc2Cl)c(=O)[nH]c1=O | inconclusive [inhibitor, full curve] | –
Cc1ccc(CCNS(=O)(=O)c2cc3c(cc2C)n(C)c(=O)c(=O)n3C)cc1 | inconclusive [inhibitor, single point] | –
Cc1onc(-c2c(Cl)cccc2Cl)c1C(=O)OCC(=O)c1ccccc1 | inconclusive [inhibitor, single point] | –

SMILES | Potency | activity change, negative = growth inhibition
Cc1ccc(S(=O)(=O)Nc2cc(=O)[nH]c(SCc3ccccc3Cl)n2)cc1 | inconclusive [inhibitor, single point] | –
O=C([O-])c1ccccc1-[n+]1c(-c2ccccc2)cc(-c2ccccc2)cc1-c1ccccc1 | active: 4.61 µM | –
CC(C)(C)c1cc(CCC(=O)NCCc2ccccn2)cc(C(C)(C)C)c1O | inconclusive [inhibitor, single point] | –
COc1ccc(S[C@@H](CCN2CC[C@H](O)CCC2=O)c2ccccc2)cc1 | inconclusive [inhibitor, single point] | –
CCc1nc2ccc(C(=O)Nc3cccc(NS(C)(=O)=O)c3)cn2c1N(CCC(C)C)CCN(C)C | active: 16.4 µM | –
CC(C)(C)n1nnnc1C(c1ccccn1)N(Cc1ccccc1)Cc1ccc(Cl)cc1 (stereo not drawn) | inconclusive [inhibitor, single point] | –
COc1cc(NC(=O)NCC2CCN(Cc3ccccc3Cl)CC2)cc(OC)c1OC | inconclusive [inhibitor, single point] | –
CN(C)c1ccc(/C=C/c2nc3ccccc3s2)cc1 | active: 100 nM and active: 16.4 µM | –
CSc1ccccc1NC(=O)Nc1ccc(Cl)cc1 | active: 20.6 µM | –
Cc1ccc(S(=O)(=O)N2CCN(C(=O)COC(=O)C3(C)CC3(Cl)Cl)CC2)c(C)c1 (stereo not drawn) | active: 23.1 µM | –
COc1cccc(OC)c1OCCN1CCN(C(c2ccccc2)c2ccccc2)CC1 | inconclusive [inhibitor, single point] | –
COc1ccc(-c2cn3nc(N4CCCC(C(=O)Nc5cc(C)ccc5C)C4)sc3n2)cc1 (stereo not drawn) | active: 23.1 µM | –
Cc1ccc(NC(=O)COc2ccccc2C(=O)Nc2ccccc2)cc1 | inconclusive [inhibitor, single point] | –
CN(Cc1ccccc1)S(=O)(=O)c1ccc(Cl)c(C(=O)NCCc2ccccn2)c1 | active: 16.4 µM | –
O=C(COc1ccccc1)Nc1ccccc1N1CCN(c2ccc(F)cc2)CC1 | inconclusive [inhibitor, single point] | –
Cc1cccc(-n2cc(-c3ccccc3)c3c(N4CCC(C)CC4)ncnc32)c1 | inconclusive [inhibitor, single point] | –
COc1ccc(-c2nc3ccc(Br)cn3c2Cc2cccc(F)c2)cc1OC | inconclusive [inhibitor, single point] | –
CCn1c(/C=C/c2ccccc2Cl)nc2ccccc2c1=O | inconclusive [inhibitor, single point] | –
CCCCN(CC)CCNC(=O)CCn1cnc2onc(-c3ccc(F)cc3)c2c1=O | active: 25.9 µM | –
CCOc1ccc(C(=O)N2CCC(C(=O)c3ccc4c(c3)OCCO4)CC2)cc1 | inconclusive [inhibitor, single point] | –
CC(C)n1c(SCC(=O)Nc2ccccc2N2CCOCC2)nc2c1c(=O)n(C)c(=O)n2C | inactive | –
Cn1c(OCc2cccnc2)nc2c1c(=O)n(Cc1ccccc1)c(=O)n2C | inconclusive [inhibitor, single point] | –
O=C(N=C1c2ccccc2CN1c1cccc(Cl)c1)c1cccnc1 | inconclusive [inhibitor, single point] | –

SMILES | Potency | activity change, negative = growth inhibition
NS(=O)(=O)c1ccc(N=Nc2ccc(=O)[nH]c2O)cc1 | inactive | –
O=C(Nc1cc(Cl)ccc1N1CCCC1)C1=NN(c2ccccc2)C(=O)CC1 | inconclusive [inhibitor, single point] | –
CCN(c1ccccc1)S(=O)(=O)c1ccc(Cl)c(NC(=O)CN(C)C2CCN(C)CC2)c1 | inconclusive [inhibitor, single point] | –
COc1ccc(Cl)cc1NC(=O)c1cnc(SC)nc1-c1ccccc1 | inconclusive [inhibitor, single point] | –
Cc1ccccc1NC(=O)C(=O)NCC1(c2ccccc2)CCCC1 | inconclusive [inhibitor, single point] | –
COc1cc(NC(=O)CC(C)S(=O)(=O)c2ccc3c(c2)CCN3C(C)=O)cc(OC)c1OC (stereo not drawn) | inactive | –
Cc1nnc(SCCn2c(N3CCC(C)CC3)nc3c2c(=O)n(C)c(=O)n3C)s1 | inconclusive [inhibitor, single point] | –
CCCN1CCN(CCCNC(=O)c2ccc3c(c2)NC(=O)c2ccccc2S3)CC1 | inactive | –
Cc1ccc(NC(=O)Nc2ccc3c(c2)N(C)C(=O)CS3)nc1 | inconclusive [inhibitor, single point] | –
CCc1ccccc1NC(=S)N1CCCCCC1 | inconclusive [inhibitor, single point] | –
O=C(CSc1nnc2scc(-c3ccc(Cl)cc3)n12)Nc1cccc(C(F)(F)F)c1 | inconclusive [inhibitor, partial curve] | –
CCOc1ccc(Nc2nc(C)c(NC(=O)c3ccc(C)cc3)c(Nc3ccc(OCC)cc3)n2)cc1 | active: 1.3 µM | –
CCOc1cc(N2CCOCC2)c(OCC)cc1NC(=O)COC(=O)c1c(CC)noc1C | inconclusive [inhibitor, single point] | –
Cc1c(C(=O)N(C)C2CCOC2)cnn1-c1ncc2c(n1)-c1ccccc1CCC2 (stereo not drawn) | – | inactive: 4.1% [at 9.04 µM]
O=C1CC(c2ccccc2)Cc2nc3nc(C(F)(F)F)nn3cc21 (stereo not drawn) | inactive | –
Cc1ccccc1C(=O)NC(C)c1nnc2n1CCN(Cc1ccnc3ccccc13)CC2 (stereo not drawn) | inconclusive [inhibitor, single point] | –
C/C(=N\NC(=O)c1cc(-c2ccc(C)s2)nc2ccccc12)c1cccnc1 | active: 11.6 µM | –
COc1ccc(CCNC(=O)COC(=O)C23CC4CC(CC(C4)C2)C3)cc1 | inconclusive [inhibitor, single point] | –
CCN1CCN(c2ncc3c(n2)CCN(Cc2sccc2C)C3)CC1 | inconclusive [inhibitor, single point] | –
CS(=O)(=O)N1CCC(C(=O)N2CCc3ccccc3C2)CC1 | inactive | –
NC(=O)c1cc([N+](=O)[O-])c(Cl)cc1NCc1ccncc1 | inconclusive [inhibitor, single point] | –
Cc1sc2ncnc(SCC(=O)N3CCCC(C(N)=O)C3)c2c1C (stereo not drawn) | inactive | –
